# Experimental data from PubChem BioAssay AID488969 (Vanderbilt High Throughput Screening Facility, 2010).
# In all, about 110,000 compounds were measured (“z-score”: median about -0.1, highest 2% from about 2 on). Some of the results follow.
# Biological target: Metabotropic glutamate receptor 8 (Rattus norvegicus) (UniProt P70579)
# Assay: rat mGluR8 modulators via GIRK flux, primary screen, cell-based, thallium flux, HTS (AID 488969)
# Settings: HEK293 rat mGluR8, GIRK (G protein-gated inwardly rectifying potassium channel) thallium flux, FluoZin2; at 10 µM; stronger effect = higher value; submaximal glutamate (EC20) added with thallium
# Sequence of UniProt P70579 (P70579 whole entry, looked up): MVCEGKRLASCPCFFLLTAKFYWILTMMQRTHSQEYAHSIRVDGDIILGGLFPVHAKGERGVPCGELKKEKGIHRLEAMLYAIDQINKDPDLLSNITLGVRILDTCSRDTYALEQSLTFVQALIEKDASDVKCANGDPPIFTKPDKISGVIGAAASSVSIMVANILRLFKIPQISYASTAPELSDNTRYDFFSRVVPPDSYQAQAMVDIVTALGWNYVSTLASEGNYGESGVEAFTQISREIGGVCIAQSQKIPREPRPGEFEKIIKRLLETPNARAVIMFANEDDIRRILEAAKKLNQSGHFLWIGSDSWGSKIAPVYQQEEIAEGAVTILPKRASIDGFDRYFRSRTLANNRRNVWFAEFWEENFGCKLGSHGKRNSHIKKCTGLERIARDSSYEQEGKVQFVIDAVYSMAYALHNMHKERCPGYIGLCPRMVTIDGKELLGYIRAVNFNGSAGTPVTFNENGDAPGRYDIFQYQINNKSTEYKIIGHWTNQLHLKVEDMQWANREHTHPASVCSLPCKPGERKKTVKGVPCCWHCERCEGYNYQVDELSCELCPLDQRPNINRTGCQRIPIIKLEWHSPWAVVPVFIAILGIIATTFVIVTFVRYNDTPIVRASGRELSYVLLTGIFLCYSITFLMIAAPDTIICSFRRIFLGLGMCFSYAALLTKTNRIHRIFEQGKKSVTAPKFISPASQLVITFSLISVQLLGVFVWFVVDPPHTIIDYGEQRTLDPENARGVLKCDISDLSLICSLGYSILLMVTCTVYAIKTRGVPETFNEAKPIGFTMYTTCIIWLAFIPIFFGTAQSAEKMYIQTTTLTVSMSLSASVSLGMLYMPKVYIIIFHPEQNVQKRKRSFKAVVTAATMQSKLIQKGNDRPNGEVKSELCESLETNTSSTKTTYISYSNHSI
row,SMILES,z-score
1,CCn1cc(C2=NOC(C(=O)Nc3ccc4c(c3)OCO4)C2)c(C)n1 (stereo unspecified),0.0389
2,COc1cccc(/C=N/NC(=O)CSCC(=O)Nc2ccccc2)c1O,-0.191
3,CCOC(=O)CNC(=O)c1sc(NC(=O)c2ccccc2)nc1C,0.176
4,CCOc1cc(/C=N/NC(=O)Cc2ccc(C(F)(F)F)cc2[N+](=O)[O-])c(Br)cc1OC,-0.0757
5,COC(=O)c1nn(-c2ccccc2)c2nnc(Cc3ccc(C)cc3)c(=O)n12,-0.114
6,Nc1c(C(=O)Nc2ccc(Br)cc2)sc2nc(-c3ccco3)ccc12,0.0153
7,COc1ccc(-n2c(COc3ccccc3)nnc2SCc2ccc(C#N)cc2)cc1,0.247
8,CC(C)C(c1nnnn1Cc1ccco1)N1CCC(C(N)=O)CC1 (stereo unspecified),0.191
9,COc1cc(NC(=S)N2CCC(C(N)=O)CC2)cc(OC)c1,-0.169
10,Cc1ccc(-n2ncc(C#N)c2/N=C/N2CCN(C)CC2)cc1,-0.463
11,COc1cc2cc(CN(Cc3ccc4c(c3)OCO4)C(=O)c3ccco3)c(=O)[nH]c2cc1OC,-0.66
12,Cc1nc(-c2cccc(NS(=O)(=O)c3ccc4ccccc4c3)c2)cs1,0.0725
13,COCC(=O)Nc1ccc(Nc2ccccc2)cc1,0.124
14,Cc1ccccc1NC(=O)C(c1ccccc1)C1CCCC1 (stereo unspecified),-0.329
15,Cc1cc(OCC(=O)Nc2ccc(OCc3ccccc3)cc2)nc(C(C)C)n1,0.00365
16,COc1cc(Cl)c(C)cc1NC(=O)CSc1nnc(-c2cccnc2)n1Cc1ccco1,-2.15

row,SMILES,z-score
1,Cc1cc(C(=O)Nc2nc3ccc(S(C)(=O)=O)cc3s2)c(C)o1,-0.188
2,CNc1nnc(-c2ccncc2)s1,-0.566
3,CCCc1nnc(NC(=O)CC(=O)OCC)s1,-0.966
4,CNC(=O)c1cc(C)c(-c2ccccc2)s1,1.08
5,Cc1cc2ncn(/N=C/c3ccc([N+](=O)[O-])s3)c2cc1C,-0.187
6,COc1ccc(C2C3=C(CC(c4ccco4)CC3=O)Nc3ccccc3N2C(C)=O)cc1 (stereo unspecified),-0.217
7,O=c1[nH]c(=O)n(C2CCCO2)cc1Br (stereo unspecified),-0.195
8,COc1ccc(C(O)C(CN2CCOCC2)c2ccccc2)cc1 (stereo unspecified),-0.181
9,CS(=O)(=O)c1sc2nc(-c3ccccc3)cc(-c3ccccc3)c2c1N,0.56
10,Cc1ccccc1Cn1cnc2c(cnn2C(C)(C)C)c1=O,0.463
11,Cn1nnnc1SCC(=O)Nc1c(Cl)cccc1Cl,0.508
12,CC(C)c1ccc(C(=O)CSc2ncn[nH]2)cc1,-0.4
13,COc1ccc(C)cc1NC(=O)C(Sc1ccccc1)c1ccccc1 (stereo unspecified),0.296
14,Cc1ccc2nc(SCc3cccc([N+](=O)[O-])c3)nc(C)c2c1,-0.0375
15,Cc1cc(C)n(-c2nc(NCCC(C)C)c3c4c(sc3n2)COC(C)(C)C4)n1,-0.867
